# Experimental data reported in PubChem BioAssay AID1345083 (National Center for Advancing Translational Sciences (NCATS), 2018).
# The campaign covered roughly 94,000 compounds. About 6,200 (6.6%) were called active. The inconclusive results got no clear call from the source; some entries with a clear call stand among them for comparison. The call rests on the fitted dose curve; in most records, active means well fitted inhibition curve with a large enough effect; inconclusive means small, poorly fitted or top-dose-only effect; inactive means flat fitted curve, though single readings scatter. A potency beside an inconclusive call is a rough fit, not a confirmed value.
# Assay: Cytotoxic Profiling in HEK 293 Cell Line of Diverse Libraries Using Quantitative High-Throughput Screening; further: nearly all actives have a fitted effect of over 60% in size
# Conditions: HEK 293 viability, ATP luminescence (CellTiter-Glo), 48-72 h; series mostly up to 115 µM
# Summary of the method: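 Cytotoxicity was scored by loss of ATP-coupled luminescence (CellTiter-Glo) in HEK 293 cells. Compound treatment ran 48 or 72 hr at 37 degree Celsius, 5% CO2, 95% humidity.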
# Potency means the concentration at half of the fitted maximal effect; tags describe the fitted curve by direction and shape.
row,Compound,Potency
1,Cc1cnc(C(=O)N[C@@H]2CCC[C@@H]2C(=O)Nc2cccc(C(C)C)c2)cn1,inactive
2,O=C(c1cccc(OC(F)(F)F)c1)N1CCN(c2cc(-c3cccs3)[nH]n2)CC1,"inconclusive: 50.1 µM [inhibitor, partial curve, poor fit]"
3,CNC(=O)CN1CCCC(N2CCN(c3cccc(C(F)(F)F)c3)CC2)C1 (stereo not drawn),inactive
4,CC(=O)NC1CCN(Cc2cccc(-c3cccc(C)c3)c2)CC1,"inconclusive: 126 µM [inhibitor, partial curve, poor fit]"
5,CCCC1c2nccn2CCCN1C(=O)c1occc1C (stereo not drawn),inactive
6,COc1ccc(Nc2cc(-c3cccs3)nc3c(C)noc23)cc1OC,active: 63.1 µM
7,COc1cc(-c2onc(C)c2C(=O)NCCC(c2ccccc2)c2ccccc2)cc(OC)c1OC,active: 35.5 µM
8,Cc1noc(C)c1-c1cc2c(c(-c3ccc(CO)cc3)c1)C(=O)N(C)C2,"inconclusive: 70.8 µM [inhibitor, partial curve, poor fit]"
9,O=C(c1ccccc1F)N1CCCCCC1c1nnc(-c2ccccc2)o1 (stereo not drawn),"inconclusive: 79.4 µM [inhibitor, partial curve, poor fit]"
10,Cc1ccc(C)c(S(=O)(=O)N2CC(c3nc(Cc4ccccc4)no3)C2)c1,"inconclusive: 56.2 µM [inhibitor, partial curve, poor fit]"
11,COCc1cc(NCc2cccnc2N(C)Cc2ccccc2)ncn1,"inconclusive: 56.2 µM [inhibitor, partial curve, poor fit]"
12,O=C(CCc1nc2ccccc2s1)N1CCC(c2noc(-c3ccccc3)n2)C1 (stereo not drawn),"inconclusive: 50.1 µM [inhibitor, partial curve, poor fit]"
13,CSc1ccc(-c2cccc(C(=O)NCC(=O)NCc3ccc(C(F)(F)F)cc3)c2)cc1,active: 44.7 µM
14,O=C(c1ccc(C(F)(F)F)cc1)N1CCC2(CC1)C(=O)Nc1ccccc12,"inconclusive: 89.1 µM [inhibitor, single point]"
15,COC(=O)C1=C(C)N=C2SC=C(CC(=O)Nc3cc(C)cc(C)c3)N2C1c1ccccc1OC (stereo not drawn),"inconclusive: 56.2 µM [inhibitor, partial curve, poor fit]"
16,O=C(c1ccc(Cl)cc1)N1CC2(CCCN(Cc3ccc(Cl)cc3)C2)Cc2ccccc21 (stereo not drawn),"inconclusive: 25.1 µM [inhibitor, full curve]"
17,O=C(Cc1ccccc1)N1CCC2(CC1)CN(Cc1ccccc1)CC2CO (stereo not drawn),"inconclusive: 50.1 µM [inhibitor, partial curve, poor fit]"
18,CNC(=O)[C@@H]1C[C@H](n2cc(CN(C)C(=O)NCC3CCCCC3)nn2)CN1,"inconclusive: 100 µM [inhibitor, single point]"
19,COc1ccc2c3c1CN(C(=O)N(C)C)CC3=CC(C)(C)CO2,"inconclusive: 56.2 µM [inhibitor, partial curve, poor fit]"
20,COc1ccc(CNC(=O)C2CCCN2Cc2ccc(-c3cncnc3)cc2)cc1 (stereo not drawn),"inconclusive: 79.4 µM [inhibitor, partial curve, poor fit]"
21,O=C(c1cncc(Br)c1)N1CCC(Cc2nc(C3CCOCC3)no2)CC1,"inconclusive: 44.7 µM [inhibitor, partial curve]"
22,CC(C)(C)c1ccc(-c2cc(C[C@H]3CNCC[C@H]3CC(=O)Nc3ccccc3)no2)cc1,"inconclusive: 89.1 µM [inhibitor, partial curve, poor fit]"

row,Compound,Potency
1,CN1C(=O)[C@@H]2C[C@@H](CN2Cc2ccc3c(c2)OCO3)Oc2ccccc21,inactive
2,CN(CCn1ccnc1)c1ccc(-c2nc(-c3cccc(Cl)c3)no2)cn1,active: 35.5 µM
3,CCN1C(=O)C2CC3(CCN(C(=O)c4ccc(OC)cc4)CC3)CN2C1=O (stereo not drawn),inactive
4,COc1cc(Cl)c(C)cc1NC(=O)CN1C(=O)NC2(CCC(C)CC2)C1=O (stereo not drawn),"inconclusive: 35.5 µM [inhibitor, partial curve]"
5,COc1ccc(CCNC(=O)[C@@H]2CCCN2c2nccc(Nc3ccccc3Cl)n2)cc1,"inconclusive: 12.6 µM [inhibitor, full curve]"
6,CN(Cc1cccnc1)c1nc2c(c(=O)[nH]1)CCN(Cc1ccc(Br)o1)CC2,"inconclusive: 25.1 µM [inhibitor, partial curve, poor fit]"
7,COc1ccccc1OCc1nc2c(n1Cc1ccccc1)C(=O)N(CC1CC1)CCN2,"inconclusive: 70.8 µM [inhibitor, partial curve]"
8,COCCCn1c(=O)c(C(=O)N2CCN(C(=O)c3ccccc3C)CC2)nc2cccnc21,inactive
9,COc1ccccc1CCNC(=O)C1CC(c2ccc(F)c(C)c2)CN(C(=O)C2CC2)C1 (stereo not drawn),active: 35.5 µM
10,CC(C)CN(CC(C)C)C[C@H]1O[C@H](Cc2cc(COc3ccccc3)on2)CC[C@@H]1O,active: 100 µM
11,COc1cccc(-c2noc(CCCc3nc(C4CCOC4)no3)n2)c1 (stereo not drawn),inactive
12,COc1cc(=O)n2c(c1C(=O)Nc1ccc(Cl)c(F)c1)CCCC2,inactive
13,CCOc1ccc(-c2ccnc(NCC3CCNCC3)n2)cc1C(=O)O,inactive
14,COc1ccc(-c2cc(N3CCOCC3=O)c3cncn3c2)cc1OC,inactive
15,COc1ccccc1-c1[nH]nc2ncc(C(=O)N3CCC(c4ccccc4)CC3)nc12,"inconclusive: 112 µM [inhibitor, partial curve, poor fit]"
16,NC(=O)c1noc2c1CN(c1cc(-c3ccccc3)nc3ccnn13)CC2,active: 44.7 µM
17,Cc1ccc(O)c(CN2CCCC(c3nc(CC(C)C)no3)C2)c1 (stereo not drawn),"inconclusive: 56.2 µM [inhibitor, partial curve, poor fit]"
18,CC#CCn1cc2c3c(cccc31)[C@H](CC(C)C)N[C@H](C(=O)NCCC)C2,active: 56.2 µM
19,COc1cccc(CCC(=O)N2CCC(c3n[nH]c(=O)n3-c3ccccc3)CC2)c1,inactive
20,O=C(Nc1ccc(=O)n2c1[C@@H]1C[C@@H](CN(C(=O)Nc3ccc(F)cc3)C1)C2)c1ccc2c(c1)OCO2,inactive
21,CNC(=O)c1cc(C2CC2)nc2onc(C3CCN([S+](=O)([O-])c4cccs4)CC3)c12,"inconclusive: 79.4 µM [inhibitor, partial curve, poor fit]"
